Molecules are shown by their SMILES. This is one part of the list. These are further read-outs of the screen, such as a control signal, another cell line or another target. No call is given for them. The list favours compounds with an active or inconclusive main result. The note in brackets gives the kind of curve behind each potency; many fits are weak.

The values below come from PubChem BioAssay AID1347044 (National Center for Advancing Translational Sciences (NCATS), 2019).
Tags describe the fitted curve by direction and shape.

The assay in a line: Natriuretic polypeptide receptor (hNpr1) antagonism - Confirmation. Further: nearly all actives have a fitted effect of over 70% in size. Conditions: HEK293 hNpr1 cGMP GloSensor luminescence, ANP-stimulated; measured here: HEK-hNpr1 cytotoxicity, CellTiter-Glo. The essentials: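 HEK293 cells co-expressing hNpr1 and GloSensor cGMP sensor preloaded 2 h with 2% GloSensor reagent, compounds added 30 min at room temperature, then 0.1 nM hNppA for 20 min; luminescence read before and after agonist. Cytotoxicity counter-screen run.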
On the technique in general: ATP-based viability assays read luminescence as a measure of living cells.
In the case of `Cc1cccc2nc(C(=O)N3CCCC(c4[nH]ncc4-c4ccccc4)C3)cn12` (centres undefined), the CC50 was 12.2 µM [falling, full curve].
As to `Cc1ccccc1SC1CCN(c2cc(C3CC(O)C3)ncn2)CC1` (centres undefined), the CC50 was 15.3 µM [falling, partial curve].
Turning to `O=C(NCc1nnc2cc(-c3nc(C4CC4)no3)ccn12)c1ccc(F)cc1Cl`, the CC50 was 17.2 µM [falling, partial curve].
For `O=C1NCN(Cc2ccc(Cl)cc2)C12CCN(Cc1ccccc1)CC2` the value was 17.2 µM [falling, partial curve]; for `O=C(Nc1cccnc1)c1nc2c(o1)CCN(Cc1ccc(F)cc1F)CC2`, 31.4 µM [falling, partial curve].
With `O=C(c1ccccc1Cl)N1CCN(c2cc(-c3ccc(Cl)cc3)[nH]n2)CC1` the figure was 17.2 µM [falling, partial curve]; with `O=C(c1cc(F)ccc1F)N1CCCC(n2cc(-c3nc(-c4ccccc4)no3)nn2)C1` (centres undefined), 21.7 µM [falling, partial curve].
For `O=C(c1csc(N2CCN(c3ccccc3)CC2)n1)N1CCCCCC1`, the half-maximal cytotoxic concentration (CC50) is 24.3 µM [falling, partial curve].
`O=C1COc2ccc(OCc3ccc(F)cc3)nc2CN1CCOc1ccccc1`: the CC50 was 35.3 µM [falling, partial curve].
For the compound `COc1ccc2ccc(OCc3nc(C(=O)N(C)Cc4cc(C)no4)co3)cc2c1`, the 50% cytotoxic concentration (CC50) was 38.5 µM [falling, single point].
For `CCOc1ccc(C(=O)N2CCCN(c3cc(-c4ccc(Cl)cc4)[nH]n3)CC2)cc1` the value was 19.3 µM [falling, partial curve]; for `O=C(CCC1CCN(S(=O)(=O)c2ccc(F)cc2)CC1)NCc1nc2ccccc2[nH]1`, 21.7 µM [falling, partial curve].
Regarding `O=C(CCc1nc2ccccc2s1)N1CCC(Cc2noc(-c3ccc(F)cc3)n2)C1` (centres undefined), the CC50 is 21.7 µM [falling, partial curve].
On to `F[C@@H]1CN(Cc2ccc(C(F)(F)F)cc2)C[C@@H]1OCc1nc2ccccc2[nH]1`, for which the cytotoxic concentration (CC50) is 35.3 µM [falling, partial curve].
As to `O=C(Cc1ccc(F)cc1)N1CCC(Cc2nc(-c3ccc(F)cc3)no2)CC1`, the half-maximal cytotoxic concentration (CC50) was 21.7 µM [falling, partial curve].
Regarding `Cc1nn(Cc2ccccc2)c(C)c1[C@@H]1C=C[C@@H](NC(=O)c2ccc3c(c2)OCO3)C1`, the CC50 is 39.6 µM [falling, partial curve].
For `O=C(Cc1c[nH]c2ncc(-c3ccc(Oc4ccccc4)cc3)cc12)N1CCOCC1` the value was 31.4 µM [falling, partial curve].
As to `CN(Cc1csc(-c2ccccc2)n1)c1cc(C2CC(O)C2)nc(N)n1` (centres undefined), the CC50 is 4.85 µM [falling, partial curve].
In the case of `CC1(C)[C@H](Cc2cc(COc3ccccc3)on2)C[C@@H]1NC(=O)c1cccs1`, the CC50 was 35.3 µM [falling, partial curve].
For `CN(C)c1ccc(C(=O)N2CCN(c3cc(-c4ccc(Cl)cc4)[nH]n3)CC2)cc1` the value was 24.3 µM [falling, partial curve]; for `O=C(c1cccc2[nH]ccc12)N1CCCN(c2cc(-c3ccc(Cl)cc3)[nH]n2)CC1`, 15.3 µM [falling, partial curve].
For `O=C(c1ccc(Cl)cc1)N1CCN(c2cc(-c3ccc(Cl)cc3)[nH]n2)CC1` the value was 21.7 µM [falling, partial curve].
In the case of `O=c1ccc(N2CCC(NS(=O)(=O)c3ccccc3Cl)CC2)nn1CC1CC1`, the cytotoxic concentration (CC50) is 21.7 µM [falling, partial curve].
`CSCc1nc(CNc2nc(C3CCCC3)nc3c2cnn3C)cs1`: the 50% cytotoxic concentration (CC50) is 17.2 µM [falling, partial curve].
Turning to `CN(C)C(=O)N1C2CCC1CN(c1ccc(C(F)(F)F)cc1)C2`, the CC50 is 21.5 µM [falling, partial curve].
As to `Cc1nc(N2CCC(C(=O)NCc3cccc(Cl)c3)CC2)cc(C(F)(F)F)n1`, the CC50 was 21.7 µM [falling, partial curve].
`CCn1c2c(c(=O)n1Cc1ccccc1)CCN(C(=O)c1ccc(Oc3ccccc3)cc1)C2`: the CC50 was 21.7 µM [falling, partial curve].
In the case of `O=C(Nc1ccc(Oc2ccccc2)cc1)O[C@@H]1CO[C@H]2[C@@H]1OC[C@@H]2NS(=O)(=O)c1ccc2ccccc2c1`, the 50% cytotoxic concentration (CC50) is 19.3 µM [falling, partial curve].
As to `COc1ccc(NC(=O)Cn2c(N(C)Cc3ccccc3)nc(C)cc2=O)cc1OC`, the half-maximal cytotoxic concentration (CC50) was 8.62 µM [falling, full curve].
With `COc1cc(N2CCC(CO)(Cc3ccccc3C(F)(F)F)CC2)ncn1` the figure was 17.2 µM [falling, partial curve]; with `COc1cccc(N2CCN(c3nc(C(=O)NCc4ccncc4)cs3)CC2)c1`, 21.7 µM [falling, partial curve]; with `Cc1cc(=O)n(CC(=O)Nc2cccc(C(F)(F)F)c2)c(N2CCC(C)CC2)n1`, 13.7 µM [falling, partial curve].
For `COc1ccc(N2CCN(C(=O)Nc3nc(C)ns3)CC2(C)C)cc1`, the CC50 was 6.11 µM [falling, full curve].
In the case of `O=C(Nc1ccc(Cl)cc1)c1nc2c(o1)CCN(Cc1ccncc1)CC2`, the CC50 was 3.96 µM [falling, full curve].
Take `Cc1cccc(C(=O)N2CCC3(CC2)CC(N(Cc2ccc(F)cc2)C2CC2)CCO3)c1` (centres undefined): the CC50 is 21.7 µM [falling, partial curve].
In the case of `O=C(c1ccncc1)N1CC2CCC(C1)N2Cc1ccc(-c2ccccc2)cc1`, the CC50 was 6.85 µM [falling, partial curve].
For `N#Cc1ccc(CN2CCc3nc(C(=O)Nc4cccc(C(F)(F)F)c4)oc3CC2)cc1` the value was 15.3 µM [falling, partial curve]; for `O=c1n(-c2ccncc2)nc2n1CCN(Cc1ccc(C(F)(F)F)cc1)C2`, 15.3 µM [falling, partial curve].
Turning to `COc1ccc(NC(=O)c2ccc3c(c2)N(S(=O)(=O)c2ccccc2)CC3)cc1`, the CC50 was 21.7 µM [falling, partial curve].

As usually defined, the CC50 is the concentration that lowers cell viability or growth by half.
